Laboratory results taken from publication PMC3474740.
No constants are given. Whether binding was seen depends on the method and setting. For some assays here: Binding seen in cells or lysates may run through a third protein. Some results given as binding are weak or reduced against the parent protein; the word gives no strength. Blank lines part the entries; values can stand above or below the substance they belong to.

By UniProt entry, the sequences of proteins in these tests, tags left out. Where a name states a change or a piece, a line headed by the entry shows the natural chain unless it says otherwise. Residues count along the entry.
UniProt O75461: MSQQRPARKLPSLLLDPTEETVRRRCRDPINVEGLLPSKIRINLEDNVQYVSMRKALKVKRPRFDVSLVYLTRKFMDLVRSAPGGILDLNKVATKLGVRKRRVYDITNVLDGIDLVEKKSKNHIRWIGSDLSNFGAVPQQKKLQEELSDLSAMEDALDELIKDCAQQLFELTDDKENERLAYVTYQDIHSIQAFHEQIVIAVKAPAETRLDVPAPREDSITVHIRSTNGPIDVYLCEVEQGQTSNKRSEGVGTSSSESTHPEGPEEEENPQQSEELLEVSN
UniProt P51532: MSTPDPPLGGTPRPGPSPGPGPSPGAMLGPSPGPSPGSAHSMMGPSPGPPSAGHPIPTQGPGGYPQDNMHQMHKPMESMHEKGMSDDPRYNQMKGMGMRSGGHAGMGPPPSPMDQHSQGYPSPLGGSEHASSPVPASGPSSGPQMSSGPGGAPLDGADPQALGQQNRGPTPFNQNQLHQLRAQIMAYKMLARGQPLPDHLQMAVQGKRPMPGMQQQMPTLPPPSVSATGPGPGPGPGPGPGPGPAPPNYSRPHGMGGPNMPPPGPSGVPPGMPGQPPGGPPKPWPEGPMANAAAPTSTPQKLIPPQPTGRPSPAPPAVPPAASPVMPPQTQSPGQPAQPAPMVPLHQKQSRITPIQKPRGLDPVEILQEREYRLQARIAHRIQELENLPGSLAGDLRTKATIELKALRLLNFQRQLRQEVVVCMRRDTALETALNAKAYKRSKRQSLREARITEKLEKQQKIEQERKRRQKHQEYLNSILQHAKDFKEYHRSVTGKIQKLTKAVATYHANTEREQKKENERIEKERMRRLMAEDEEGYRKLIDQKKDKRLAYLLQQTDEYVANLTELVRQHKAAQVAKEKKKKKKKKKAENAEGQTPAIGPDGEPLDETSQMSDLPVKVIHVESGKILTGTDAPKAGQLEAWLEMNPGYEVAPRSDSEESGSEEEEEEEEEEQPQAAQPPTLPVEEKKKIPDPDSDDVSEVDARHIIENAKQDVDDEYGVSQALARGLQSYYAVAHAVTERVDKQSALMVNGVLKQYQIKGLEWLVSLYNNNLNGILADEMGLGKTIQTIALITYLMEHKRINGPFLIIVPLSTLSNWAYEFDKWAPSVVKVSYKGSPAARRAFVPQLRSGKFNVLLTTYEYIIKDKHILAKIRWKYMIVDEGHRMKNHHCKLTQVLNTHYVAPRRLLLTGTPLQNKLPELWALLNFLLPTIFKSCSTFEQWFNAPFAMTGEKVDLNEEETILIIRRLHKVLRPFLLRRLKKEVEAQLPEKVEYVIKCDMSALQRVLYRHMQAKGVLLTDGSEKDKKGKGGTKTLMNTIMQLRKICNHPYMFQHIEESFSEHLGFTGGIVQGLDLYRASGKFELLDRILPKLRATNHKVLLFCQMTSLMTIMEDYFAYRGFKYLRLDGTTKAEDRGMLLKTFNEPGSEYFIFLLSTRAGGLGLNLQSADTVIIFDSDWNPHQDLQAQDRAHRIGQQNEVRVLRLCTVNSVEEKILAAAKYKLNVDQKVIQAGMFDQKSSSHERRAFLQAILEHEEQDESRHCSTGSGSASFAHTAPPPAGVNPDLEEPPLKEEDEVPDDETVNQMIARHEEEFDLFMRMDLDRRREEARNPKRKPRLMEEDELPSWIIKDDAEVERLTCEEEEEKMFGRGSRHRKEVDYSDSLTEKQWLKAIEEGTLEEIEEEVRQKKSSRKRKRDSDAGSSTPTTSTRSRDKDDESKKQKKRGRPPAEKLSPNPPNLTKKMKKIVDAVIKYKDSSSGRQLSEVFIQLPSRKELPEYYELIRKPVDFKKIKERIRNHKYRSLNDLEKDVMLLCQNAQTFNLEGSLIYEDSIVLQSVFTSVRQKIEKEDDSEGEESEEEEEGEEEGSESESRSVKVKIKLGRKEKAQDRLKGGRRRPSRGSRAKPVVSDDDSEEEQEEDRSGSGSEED
BRG1 clone from the yeast two-hybrid screen, amino acids 462–578: residues 462-578 of P51532
UniProt Q86U86: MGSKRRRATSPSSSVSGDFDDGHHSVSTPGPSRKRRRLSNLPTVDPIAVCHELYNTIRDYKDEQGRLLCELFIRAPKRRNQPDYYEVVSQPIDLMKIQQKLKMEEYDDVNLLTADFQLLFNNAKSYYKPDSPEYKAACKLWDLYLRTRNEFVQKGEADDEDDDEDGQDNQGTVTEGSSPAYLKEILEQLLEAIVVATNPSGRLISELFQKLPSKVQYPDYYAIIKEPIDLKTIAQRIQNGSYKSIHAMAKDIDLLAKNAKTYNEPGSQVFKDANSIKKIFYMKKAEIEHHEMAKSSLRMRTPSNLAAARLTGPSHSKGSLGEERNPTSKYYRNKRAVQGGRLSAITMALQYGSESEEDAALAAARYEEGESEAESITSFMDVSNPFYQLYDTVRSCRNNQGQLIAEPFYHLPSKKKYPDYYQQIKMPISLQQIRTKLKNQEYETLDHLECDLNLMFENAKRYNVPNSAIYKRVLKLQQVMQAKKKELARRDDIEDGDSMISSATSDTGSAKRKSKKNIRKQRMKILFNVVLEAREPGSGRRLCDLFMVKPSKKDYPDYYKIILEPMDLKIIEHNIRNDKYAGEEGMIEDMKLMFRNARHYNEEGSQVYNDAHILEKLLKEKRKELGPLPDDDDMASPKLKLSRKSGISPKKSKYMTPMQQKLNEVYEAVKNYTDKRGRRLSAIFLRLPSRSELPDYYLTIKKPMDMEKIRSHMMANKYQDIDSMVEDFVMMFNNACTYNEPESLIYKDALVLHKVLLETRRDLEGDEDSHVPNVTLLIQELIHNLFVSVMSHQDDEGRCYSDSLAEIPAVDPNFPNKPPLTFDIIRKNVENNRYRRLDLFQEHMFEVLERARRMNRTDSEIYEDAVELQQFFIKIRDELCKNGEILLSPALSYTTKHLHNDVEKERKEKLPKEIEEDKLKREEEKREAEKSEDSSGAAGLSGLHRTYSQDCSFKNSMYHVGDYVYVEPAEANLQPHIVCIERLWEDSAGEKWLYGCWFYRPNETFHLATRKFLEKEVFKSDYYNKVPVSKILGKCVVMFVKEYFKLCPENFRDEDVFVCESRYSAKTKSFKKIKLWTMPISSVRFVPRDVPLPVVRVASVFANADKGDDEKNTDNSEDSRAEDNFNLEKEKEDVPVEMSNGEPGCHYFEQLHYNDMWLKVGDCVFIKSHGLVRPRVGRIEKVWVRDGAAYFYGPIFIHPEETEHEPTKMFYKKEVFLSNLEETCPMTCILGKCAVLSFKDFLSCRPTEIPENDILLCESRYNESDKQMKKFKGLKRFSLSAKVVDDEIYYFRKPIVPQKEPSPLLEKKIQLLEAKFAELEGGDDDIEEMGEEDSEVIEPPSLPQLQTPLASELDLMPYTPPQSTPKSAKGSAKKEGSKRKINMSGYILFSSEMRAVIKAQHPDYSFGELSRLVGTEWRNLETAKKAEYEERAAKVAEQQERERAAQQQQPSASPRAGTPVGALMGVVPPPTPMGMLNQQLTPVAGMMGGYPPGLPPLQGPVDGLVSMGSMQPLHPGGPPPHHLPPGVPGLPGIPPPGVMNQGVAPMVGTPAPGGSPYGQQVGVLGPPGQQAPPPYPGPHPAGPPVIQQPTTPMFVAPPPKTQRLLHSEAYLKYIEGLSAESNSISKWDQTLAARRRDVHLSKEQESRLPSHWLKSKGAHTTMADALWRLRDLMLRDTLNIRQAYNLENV
UniProt Q14186: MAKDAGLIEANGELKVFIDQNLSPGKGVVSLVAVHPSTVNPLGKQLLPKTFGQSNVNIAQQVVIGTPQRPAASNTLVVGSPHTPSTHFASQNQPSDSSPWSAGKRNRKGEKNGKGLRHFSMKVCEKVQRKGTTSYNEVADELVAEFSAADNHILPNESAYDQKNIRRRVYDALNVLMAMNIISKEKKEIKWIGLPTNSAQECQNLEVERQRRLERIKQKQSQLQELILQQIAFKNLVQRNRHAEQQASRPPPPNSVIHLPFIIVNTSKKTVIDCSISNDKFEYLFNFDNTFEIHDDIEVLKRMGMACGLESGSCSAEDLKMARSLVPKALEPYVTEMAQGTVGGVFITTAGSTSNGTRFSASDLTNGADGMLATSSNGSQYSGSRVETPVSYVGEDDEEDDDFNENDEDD
UniProt Q14209: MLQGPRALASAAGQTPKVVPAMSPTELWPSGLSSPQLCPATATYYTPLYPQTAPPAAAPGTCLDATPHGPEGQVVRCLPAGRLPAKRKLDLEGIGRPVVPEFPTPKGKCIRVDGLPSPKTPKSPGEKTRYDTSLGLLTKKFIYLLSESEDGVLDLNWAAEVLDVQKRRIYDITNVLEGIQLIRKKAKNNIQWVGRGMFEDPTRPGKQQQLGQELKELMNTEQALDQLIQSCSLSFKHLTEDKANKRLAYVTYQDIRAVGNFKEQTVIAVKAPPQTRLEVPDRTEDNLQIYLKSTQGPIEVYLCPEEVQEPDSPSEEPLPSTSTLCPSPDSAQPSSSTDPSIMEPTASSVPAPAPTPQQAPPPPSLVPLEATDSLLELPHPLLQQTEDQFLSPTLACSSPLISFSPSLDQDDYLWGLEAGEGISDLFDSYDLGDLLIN
UniProt Q01094: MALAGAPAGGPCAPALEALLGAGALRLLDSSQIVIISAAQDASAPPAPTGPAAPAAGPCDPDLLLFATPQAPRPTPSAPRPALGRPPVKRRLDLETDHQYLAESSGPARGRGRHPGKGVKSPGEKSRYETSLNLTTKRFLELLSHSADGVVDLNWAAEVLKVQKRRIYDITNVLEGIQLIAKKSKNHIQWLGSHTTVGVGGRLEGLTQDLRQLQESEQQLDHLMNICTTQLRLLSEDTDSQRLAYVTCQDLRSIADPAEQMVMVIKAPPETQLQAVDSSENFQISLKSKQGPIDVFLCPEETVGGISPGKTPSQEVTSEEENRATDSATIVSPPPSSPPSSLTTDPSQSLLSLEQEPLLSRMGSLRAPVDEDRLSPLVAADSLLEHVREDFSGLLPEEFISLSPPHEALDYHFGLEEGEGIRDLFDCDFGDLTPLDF
UniProt Q16254: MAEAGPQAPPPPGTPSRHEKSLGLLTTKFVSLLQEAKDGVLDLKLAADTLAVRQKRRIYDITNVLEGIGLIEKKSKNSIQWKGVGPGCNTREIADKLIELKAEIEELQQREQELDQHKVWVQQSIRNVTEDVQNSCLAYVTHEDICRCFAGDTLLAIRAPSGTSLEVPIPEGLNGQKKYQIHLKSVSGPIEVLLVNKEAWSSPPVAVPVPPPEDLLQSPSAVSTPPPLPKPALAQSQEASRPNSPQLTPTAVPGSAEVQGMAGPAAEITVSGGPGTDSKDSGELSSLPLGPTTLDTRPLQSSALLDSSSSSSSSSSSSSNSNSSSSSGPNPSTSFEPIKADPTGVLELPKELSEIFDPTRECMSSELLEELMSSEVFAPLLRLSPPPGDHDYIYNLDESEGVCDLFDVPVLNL
UniProt O00716: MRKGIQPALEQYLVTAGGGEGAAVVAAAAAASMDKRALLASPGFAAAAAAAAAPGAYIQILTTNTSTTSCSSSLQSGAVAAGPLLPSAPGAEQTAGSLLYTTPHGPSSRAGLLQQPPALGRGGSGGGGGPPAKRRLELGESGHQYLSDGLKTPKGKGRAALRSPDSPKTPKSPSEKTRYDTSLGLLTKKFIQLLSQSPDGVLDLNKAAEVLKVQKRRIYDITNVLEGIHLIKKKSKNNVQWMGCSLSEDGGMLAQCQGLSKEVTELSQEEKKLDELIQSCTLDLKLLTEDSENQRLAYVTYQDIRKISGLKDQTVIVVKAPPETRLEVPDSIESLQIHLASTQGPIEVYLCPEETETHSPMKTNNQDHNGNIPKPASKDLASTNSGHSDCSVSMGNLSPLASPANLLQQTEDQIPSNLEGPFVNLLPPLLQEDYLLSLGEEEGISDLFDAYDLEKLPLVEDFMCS

How the values were obtained:
[1] = molecular target: endogenous E2F6 (human (endogenous in 293)) (UniProt O75461); assay: co-IP; endogenous proteins, asynchronously growing 293 cells, no transfection; IP with a polyclonal antibody to E2F6, blot for BRG1
[2] = molecular target: GST-E2F6 recombinant protein (human) (UniProt O75461); assay: pull-down; GST or GST-E2F6 on GST-Sepharose beads incubated with [35S] methionine-labeled in vitro translated BRG1 in TBS/1% Triton X-100 at 4°C; autoradiography; only the target purified
[3] = molecular target: BRG1 overexpressed in T98G cells (human) (UniProt P51532); assay: co-IP; BRG1 and E2F6 co-transfected into T98G cells; IP with a monoclonal antibody to BRG1; lysis buffer 50 mM Tris-HCl pH 7.4, 150 mM NaCl, 1 mM EDTA, 1% Triton X-100
Flag-tagged BAF180 = Flag-tagged BAF180 (UniProt Q86U86); assay: co-IP; plasmids co-transfected into 293 (293T in Figure 3C) cells; IP with antibodies to HA, DP1, BAF155 or BAF180; lysis buffer 50 mM Tris-HCl pH 7.4, 150 mM NaCl, 1 mM EDTA, 1% Triton X-100
HA-tagged E2F6 (human) = HA-tagged E2F6 (human) (UniProt O75461); assay: as above
[4] = molecular target: BAF155 expressed in 293 cells (UniProt Q92922); assay: as above
[5] = molecular target: DP1 expressed in 293 cells (UniProt Q14186); assay: as above
[6] = molecular target: E2F2 in pGBT9B (GAL4 DNA-binding domain fusion) (human) (UniProt Q14209); assay: two-hybrid; GAL4-based; GAL4 DBD-E2F bait in pGBT9B in yeast together with DP1; preys are clones from a BD Matchmaker Human Testis Library (screen with E2F6, clones retested against E2Fs 1-4 and E2F6)
[7] = molecular target: E2F1 in pGBT9B (GAL4 DNA-binding domain fusion) (human) (UniProt Q01094); assay: as above
[8] = molecular target: E2F4 in pGBT9B (GAL4 DNA-binding domain fusion) (human) (UniProt Q16254); assay: as above
[9] = molecular target: GAL4 DNA-binding domain (DBD)-E2F6 fusion (human) (UniProt O75461); assay: as above
[10] = molecular target: E2F3 in pGBT9B (GAL4 DNA-binding domain fusion) (human) (UniProt O00716); assay: as above
HA-tagged E2F3 (human) = HA-tagged E2F3 (human) (UniProt O00716); assay: co-IP; plasmids co-transfected into 293 (293T in Figure 3C) cells; IP with antibodies to HA, DP1, BAF155 or BAF180; lysis buffer 50 mM Tris-HCl pH 7.4, 150 mM NaCl, 1 mM EDTA, 1% Triton X-100
HA-tagged E2F4 (human) = HA-tagged E2F4 (human) (UniProt Q16254); assay: as above
HA-tagged E2F2 (human) = HA-tagged E2F2 (human) (UniProt Q14209); assay: as above

Substance: S^35-labeled in vitro-translated BRG1 (from UniProt P51532-1 1-1647)
- binding [2]: binds

Substance: E2F6 overexpressed in T98G cells (from UniProt O75461 1-281)
- binding [3]: binds

Substance: flag-tagged BRG1 (from UniProt P51532-1 1-1647)
- binding (HA-tagged E2F6 (human)): binds

Substance: E2F6 expressed in 293 cells (from UniProt O75461 1-281)
- binding [4]: binds
- binding [5]: binds

Next, values leading:

- binding [1]: binds
Substance: endogenous BRG1 (from UniProt P51532 1-1647)

- binding (Flag-tagged BAF180): binds
Substance: HA-tagged E2F6 (from UniProt O75461 1-281)

- binding [6]: no binding
- binding [7]: no binding
- binding [8]: no binding
- binding [9]: binds
- binding [10]: no binding
Substance: BRG1 clone from the yeast two-hybrid screen, amino acids 462–578 (from UniProt P51532-1 462-578) (domain or fragment)

- binding [5]: binds
- binding (HA-tagged E2F6 (human)): binds
- binding (HA-tagged E2F3 (human)): no binding
- binding (HA-tagged E2F4 (human)): binds
- binding (HA-tagged E2F2 (human)): no binding
Substance: BRG1 expressed in 293 cells (from UniProt P51532-1 1-1647)
